About 2,200 (0.71%) of roughly 310,000 compounds showed an effect of 50% or more. Effects have a minus sign here. The list shows a part of the results.
target: human ether-à-go-go-related gene (hERG) potassium channel (human, UniProt Q12809); experiment: primary screen, population patch clamp on CHO cells stably expressing hERG
Sequence (Q12809 whole entry, looked up): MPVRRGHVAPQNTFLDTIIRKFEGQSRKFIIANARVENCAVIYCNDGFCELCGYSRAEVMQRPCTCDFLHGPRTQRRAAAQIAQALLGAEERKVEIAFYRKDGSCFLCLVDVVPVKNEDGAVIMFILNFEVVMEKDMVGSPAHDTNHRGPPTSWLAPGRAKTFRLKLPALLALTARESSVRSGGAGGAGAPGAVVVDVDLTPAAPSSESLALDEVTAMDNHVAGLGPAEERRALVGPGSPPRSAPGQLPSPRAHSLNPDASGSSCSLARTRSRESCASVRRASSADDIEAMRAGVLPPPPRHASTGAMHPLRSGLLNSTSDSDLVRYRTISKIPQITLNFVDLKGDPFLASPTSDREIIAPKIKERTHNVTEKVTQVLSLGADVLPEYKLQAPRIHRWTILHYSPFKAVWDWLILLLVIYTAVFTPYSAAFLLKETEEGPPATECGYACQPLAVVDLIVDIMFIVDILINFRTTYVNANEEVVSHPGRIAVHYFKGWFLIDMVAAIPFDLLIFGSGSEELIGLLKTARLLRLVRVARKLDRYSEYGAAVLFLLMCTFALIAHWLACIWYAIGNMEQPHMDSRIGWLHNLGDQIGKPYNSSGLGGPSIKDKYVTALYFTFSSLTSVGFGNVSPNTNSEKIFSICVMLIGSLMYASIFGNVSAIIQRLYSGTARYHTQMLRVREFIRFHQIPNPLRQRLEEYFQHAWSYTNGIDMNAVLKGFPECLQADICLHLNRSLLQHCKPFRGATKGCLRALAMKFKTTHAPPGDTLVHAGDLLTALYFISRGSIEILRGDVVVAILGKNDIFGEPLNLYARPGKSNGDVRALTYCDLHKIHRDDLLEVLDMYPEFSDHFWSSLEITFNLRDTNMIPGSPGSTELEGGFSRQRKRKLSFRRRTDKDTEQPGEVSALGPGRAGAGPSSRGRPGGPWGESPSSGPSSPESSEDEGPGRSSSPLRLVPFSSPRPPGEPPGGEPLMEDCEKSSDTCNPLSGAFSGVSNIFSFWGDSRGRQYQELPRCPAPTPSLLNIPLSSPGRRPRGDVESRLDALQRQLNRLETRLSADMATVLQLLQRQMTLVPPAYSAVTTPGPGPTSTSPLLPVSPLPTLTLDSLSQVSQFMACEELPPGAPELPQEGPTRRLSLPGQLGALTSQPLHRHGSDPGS

In order of falling “hERG current change (%, negative = inhibition) at 1uM” value:
1. CC(C)(C)OC(=O)NN1CC(=O)N2[C@@H](Cc3c([nH]c4ccccc34)C2(C)C)C1=O  24.1%
2. O=C(O)C1CN(C(=O)c2cccc(Br)c2)C1  19.9%
3. Cc1c(Br)cc(-c2nnco2)cc1Br  19%
4. O=S(=O)(c1cc(F)ccc1F)N1CCN2CCCC2C1 (stereo not shown)  17.7%
5. CCc1ccc(NC(=O)NC2CCCCCCC2)cc1  17.6%
6. COc1cc(C(=S)N2CCCCC2)ccc1OCC(=O)Nc1ccccc1Cl  17.5%
7. O=C(N/N=C/c1ccco1)c1cc(-c2ccc(Cl)s2)[nH]n1  16.2%
8. CC1(C)CC(=O)C(N=Nc2cccc(F)c2C#N)=C(O)C1  15%
9. CCCCC[C@H](O)/C=C/[C@@H]1[C@@H](C/C=C\CCCC(=O)O)[C@@H](O)C[C@H]1O.NC(CO)(CO)CO  14.9%
10. CCOC(=O)c1ccccc1NC(=O)c1ccc(F)cc1  13.6%
11. C/C(CC(=O)Nc1ccc(Cl)cc1C(F)(F)F)=N\NC(=O)c1ccccn1  13.4%
12. Cc1cccc(OCC(=O)N(C)c2c(N)n(Cc3ccccc3)c(=O)[nH]c2=O)c1C  12.7%
13. CCN(CC)S(=O)(=O)c1ccc(C(=O)NCCCn2ccnc2)cc1  12.7%
14. CCc1nnc(NC(=O)CSc2nc(-c3ccc(OC)cc3)ns2)s1  12.5%
15. Cc1ccc(C)c(N2CCN(S(=O)(=O)c3cc4c(cc3Cl)NC(=O)CO4)CC2)c1  12%
16. Cc1ccc2occ(/C=N/O)c(=O)c2c1  11.4%
17. COc1ccccc1-n1c(C)c(C(=O)O)c2cc(OC)c3ccccc3c21  11.3%
18. COc1ccc(C(C)=O)cc1CN1CCCCC1.Cl  11.2%
19. CCOc1cc(C(=O)OCc2cccc(OC)c2OC)ccc1OCC(=O)N1CCOCC1  10.3%
20. CCOc1cc(/C=C2\N=C(C)OC2=O)cc(Cl)c1OCC(=O)OC  10%
21. CCOC(=O)Cn1nnc(-c2cccc(OC)c2)n1  9.82%
22. C/C(=N\NS(=O)(=O)c1ccc(C)cc1)c1ccc(C)o1  9.31%
23. O=C(Nc1nc(-c2ccccn2)cs1)c1ccc([N+](=O)[O-])o1  8.67%
24. Cc1ccc2nc(NC(=S)NC(=O)c3ccco3)sc2c1  8.59%
25. COc1ccc(S(=O)(=O)N(C)c2ccc(C(=O)N3CCOCC3)cc2)cc1OC  8.49%
26. CC(C)NC(=O)CSc1nccc(-c2cccs2)n1  8.37%
27. CC(C)(C)c1csc(NC(=O)Nc2ccccc2)n1  8.1%
28. COc1ccc(-n2ncc3c(=O)n(CC(=O)NC(C)C)cnc32)cc1  7.75%
29. O=C(CSc1nnc(Cc2ccccc2)o1)N1CCCC1  7.19%
30. CCOc1ccc(NC2=NC(C(=O)NCc3ccccc3)CC(=O)N2)cc1 (stereo not shown)  7.04%
31. COc1ccc(-c2cnnn2-c2ccc(NC(=O)c3ccc(S(=O)(=O)N4CCCCC4)cc3)cc2)cc1  6.57%
32. O=C(Cc1ccccc1)NC(=S)Nc1ccc(OC(F)F)cc1  6.25%
33. Cc1ccc(OCC(=O)N(c2ccccn2)C2CCCCC2)c(C)c1  5.47%
34. O=C(N/N=C/c1cccnc1)c1cc(-c2ccccc2Cl)nc2ccccc12  5.08%
35. COc1cccc(Cn2c(Oc3cccc(C)c3)nc3c2c(=O)n(C)c(=O)n3C)c1  4.42%
36. Cc1cccc2sc(NC(=O)CCNS(=O)(=O)c3cccs3)nc12  3.11%
37. Cc1[nH]c2ccccc2c1NC(=O)CN1CCN(c2cccc(C(F)(F)F)c2)CC1  2.73%
38. O=C(COC(=O)c1ccccc1NS(=O)(=O)c1cccs1)NC1CCCCC1  2.45%
39. CCOc1ccc(C(C)NC(=O)c2ccccc2OCc2c(C)noc2C)cc1OCC (stereo not shown)  1.17%
40. CC(C)(C)NC(=O)N1CCCN(c2ccc(C(F)(F)F)cn2)CC1  -0.78%
41. COc1ccc(-c2nc3ncccn3c2Nc2ccccc2)cc1  -4.18%
42. Cc1[nH]c2ccccc2c1C(=O)CN1C(=O)C(=O)N(Cc2ccco2)C1=O  -4.44%
43. O=C(CN1CCN(Cc2ccc(Cl)cc2)CC1)N/N=C/c1ccccc1F  -14.3%
